Measurements published in the supplement of paper PMC7826260.
Some of the results follow. Cleavage of a single-stranded DNA pool by Rep nickase domains was read by sequencing (3 µM enzyme, 1 h, 37 °C); shown is the middle of each 90-letter strand. The score is log2 (uncut reads / reads without enzyme); more negative means more cut, near 0 not cut, and no call is made. Because reads are shares of a total, they shift together; uncut strands gain when others are lost, and binding without cutting may add a little.

Each sequence was assayed on T1, Rep nickase domain of Muscovy duck circovirus (assay: uncleaved DNA left, log2 of reads against the no-enzyme library (log2 ratio); higher = less cleavage (more negative = more Rep cleavage of the k-mer); sequences stand for … in CTCGTCCG…ACCGGAGA).
T1 sequence (protein, residues 1-111, tag omitted): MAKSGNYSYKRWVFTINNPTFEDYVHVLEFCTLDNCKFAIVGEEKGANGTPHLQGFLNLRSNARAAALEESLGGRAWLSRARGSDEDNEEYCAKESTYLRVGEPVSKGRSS
Method: (§1)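 A pool of 90-nt single-stranded DNAs with seven random bases just before the constant AC of the nick site (name = the seven bases) was cut by 3 µM recombinant His6-SUMO-tagged Rep nickase domain (300 nM DNA, 50 mM HEPES pH 8.0, 50 mM NaCl, 1 mM MnCl2, 1 h, 37 °C, three replicates). Uncut DNA was amplified and sequenced.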

Sequence | uncleaved DNA left (log2)
TCGCGGC | -0.0073
CTATTCA | -0.186
GGAAGGG | 0.121
AGAACGG | 0.0228
TGCAATT | -2.4e-05
GCAAGAC | 0.0218
TTCAAAT | 0.0353
GAGGGGA | -0.00479
ACCGACT | 0.163
GTTGAAA | 0.145
CAATCCG | -0.0551
ATCCCTA | -0.0632
ACATGCC | -0.0942
TAGCCAC | 0.0401
ATACTGG | 0.000739
GATTAAG | 0.0678
TCACTTA | 0.0548
TTCATCA | 0.0256
CGCCTTG | -0.154
AATAGCG | -0.0973

Sequence | uncleaved DNA left (log2)
TAACATA | 0.0134
CGGATGT | -0.0626
GGGGTGC | 0.0283
CTCTTTG | 0.0852
GGCTGTA | 0.151
ACCATTG | 0.0125
GCGATCA | -0.0629
GCGAGCG | 0.0304
GTGAGAT | 0.214
CCCCGGT | -0.0974
TATGGAT | 0.0729
ACGTTCG | -0.0536
GCGCCGT | -0.028
CGCTCGA | -0.159
GCAGTGA | 0.0117
TTAACGT | 0.0482
GAGCTAT | 0.00768
CATGTAA | -0.0386
GGTAAAC | -0.0607
CTCTTTT | -2.78

What follows are sequences tested on T2, Rep nickase domain of banana bunchy top virus in the same assay as above.
T2 sequence (protein, residues 1-94, tag omitted): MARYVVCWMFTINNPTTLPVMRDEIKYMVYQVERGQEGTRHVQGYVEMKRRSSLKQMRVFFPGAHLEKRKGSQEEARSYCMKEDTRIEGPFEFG
Method: as §1

Sequence | uncleaved DNA left (log2)
TCGCGGC | -0.0864
CTATTCA | -0.0391
GGAAGGG | 0.0194
AGAACGG | 0.185
TGCAATT | 0.0815
GCAAGAC | 0.0634
TTCAAAT | 0.116
GAGGGGA | -0.142
ACCGACT | 0.138
GTTGAAA | 0.149
CAATCCG | -0.0747
ATCCCTA | -0.00857
ACATGCC | -0.0293
TAGCCAC | -0.0415
ATACTGG | 0.0317
GATTAAG | -0.0174
TCACTTA | -0.042
TTCATCA | 0.0933
CGCCTTG | -0.287
AATAGCG | -0.0478

Sequence | uncleaved DNA left (log2)
TAACATA | 0.0928
CGGATGT | -0.0548
GGGGTGC | 0.0443
CTCTTTG | 0.0544
GGCTGTA | 0.0378
ACCATTG | 0.0234
GCGATCA | 0.0377
GCGAGCG | 0.00791
GTGAGAT | 0.177
CCCCGGT | -0.0161
TATGGAT | 0.0604
ACGTTCG | 0.018
GCGCCGT | 0.0706
CGCTCGA | -0.135
GCAGTGA | 0.0607
TTAACGT | -0.0693
GAGCTAT | -0.0906
CATGTAA | 0.00557
GGTAAAC | 0.0603
CTCTTTT | -0.3

What follows are sequences tested on T3, Rep nickase domain of cabbage leaf curl virus in the same assay as above.
T3 sequence (protein, residues 1-116, tag omitted): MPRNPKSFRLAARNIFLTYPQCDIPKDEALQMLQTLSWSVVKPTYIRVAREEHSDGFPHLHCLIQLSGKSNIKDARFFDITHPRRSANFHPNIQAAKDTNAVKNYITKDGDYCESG
Method: as §1

Sequence | uncleaved DNA left (log2)
TCGCGGC | -0.16
CTATTCA | -0.299
GGAAGGG | 0.234
AGAACGG | 0.324
TGCAATT | -0.00606
GCAAGAC | 0.305
TTCAAAT | 0.299
GAGGGGA | 0.656
ACCGACT | 0.022
GTTGAAA | 0.347
CAATCCG | -0.875
ATCCCTA | -0.0502
ACATGCC | -0.644
TAGCCAC | 0.0433
ATACTGG | -0.0739
GATTAAG | -0.769
TCACTTA | 0.0011
TTCATCA | 0.436
CGCCTTG | -0.411
AATAGCG | -0.616

Sequence | uncleaved DNA left (log2)
TAACATA | -1.48
CGGATGT | 0.159
GGGGTGC | 0.789
CTCTTTG | -0.684
GGCTGTA | 0.404
ACCATTG | -0.512
GCGATCA | 0.0293
GCGAGCG | -0.224
GTGAGAT | 0.712
CCCCGGT | 0.514
TATGGAT | 0.307
ACGTTCG | -0.614
GCGCCGT | -0.0674
CGCTCGA | -0.425
GCAGTGA | -0.15
TTAACGT | -0.142
GAGCTAT | 0.17
CATGTAA | -0.208
GGTAAAC | 0.505
CTCTTTT | -0.352

These sequences were tested on T4, Rep nickase domain of chickpea chlorotic dwarf virus in the same assay as above.
T4 sequence (protein, residues 1-124, tag omitted): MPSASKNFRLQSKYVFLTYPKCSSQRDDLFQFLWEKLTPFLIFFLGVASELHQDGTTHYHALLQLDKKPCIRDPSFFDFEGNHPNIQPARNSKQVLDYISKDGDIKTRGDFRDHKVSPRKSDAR
Method: as §1

Sequence | uncleaved DNA left (log2)
TCGCGGC | -0.594
CTATTCA | -1.28
GGAAGGG | 0.617
AGAACGG | 1.01
TGCAATT | -1.69
GCAAGAC | 0.809
TTCAAAT | -0.238
GAGGGGA | 1.11
ACCGACT | -0.467
GTTGAAA | 0.929
CAATCCG | -0.0238
ATCCCTA | -0.882
ACATGCC | -0.517
TAGCCAC | -0.132
ATACTGG | -0.0629
GATTAAG | -0.353
TCACTTA | -1.32
TTCATCA | 0.0757
CGCCTTG | -0.135
AATAGCG | 0.811

Sequence | uncleaved DNA left (log2)
TAACATA | -2.25
CGGATGT | 0.939
GGGGTGC | 1.65
CTCTTTG | -0.543
GGCTGTA | 1.03
ACCATTG | 0.191
GCGATCA | 0.356
GCGAGCG | 0.0132
GTGAGAT | 1.72
CCCCGGT | 1.6
TATGGAT | 1.57
ACGTTCG | -0.0865
GCGCCGT | -0.0584
CGCTCGA | -0.571
GCAGTGA | -0.0577
TTAACGT | -0.466
GAGCTAT | 0.451
CATGTAA | -0.689
GGTAAAC | 1.28
CTCTTTT | -2.28

What follows are sequences tested on T5, Rep nickase domain of faba bean necrotic yellows virus in the same assay as above.
T5 sequence (protein, residues 1-98, tag omitted): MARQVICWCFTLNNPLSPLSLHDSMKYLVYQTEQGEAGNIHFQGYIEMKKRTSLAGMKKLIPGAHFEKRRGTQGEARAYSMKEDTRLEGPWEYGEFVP
Method: as §1

Sequence | uncleaved DNA left (log2)
TCGCGGC | -0.13
CTATTCA | -0.0491
GGAAGGG | 0.000307
AGAACGG | 0.0919
TGCAATT | 0.129
GCAAGAC | -0.0407
TTCAAAT | 0.147
GAGGGGA | -0.000606
ACCGACT | 0.234
GTTGAAA | 0.0865
CAATCCG | -0.0712
ATCCCTA | 0.152
ACATGCC | -0.0267
TAGCCAC | -0.137
ATACTGG | -0.0214
GATTAAG | 0.0246
TCACTTA | -0.119
TTCATCA | 0.00411
CGCCTTG | -0.169
AATAGCG | -0.0493

Sequence | uncleaved DNA left (log2)
TAACATA | 0.0796
CGGATGT | 0.0509
GGGGTGC | -0.0485
CTCTTTG | 0.154
GGCTGTA | -0.0555
ACCATTG | 0.0578
GCGATCA | -0.0533
GCGAGCG | -0.0142
GTGAGAT | 0.236
CCCCGGT | -0.119
TATGGAT | 0.0856
ACGTTCG | 0.119
GCGCCGT | -0.0294
CGCTCGA | -0.0317
GCAGTGA | 0.0612
TTAACGT | 0.0426
GAGCTAT | -0.0956
CATGTAA | 0.117
GGTAAAC | -0.0844
CTCTTTT | 0.0819
